Measured values from US9439918B2 (priority 2008, dated 2016).
Converted amounts (≈) assume the structure as drawn.

Legend:
Assay type in all cases: cell-based
Details in all cases: broth microdilution
[1] = test system: S. pneumoniae 163 Ery-R (MefA)
[2] = test system: H. influenzae 49247 Ery-S
[3] = test system: S. aureus 96:11480 Ery-R (MLSb)
S. aureus 29213 Ery-S = test system: S. aureus 29213 Ery-S
S. aureus RN220 = test system: S. aureus RN220
[4] = test system: S. pneumoniae 303 Ery-R (ermB)

Structure (SMILES)	Minimum inhibitory concentration, S. pneumoniae 163 Ery-R (MefA) [1]	Minimum inhibitory concentration, H. influenzae 49247 Ery-S [2] [µg/mL]	Minimum inhibitory concentration, S. aureus 96:11480 Ery-R (MLSb) [3]	Minimum inhibitory concentration, S. aureus 29213 Ery-S (S. aureus 29213 Ery-S)	MIC, S. aureus RN220 (S. aureus RN220) [µg/mL]	Minimum inhibitory concentration, S. pneumoniae 303 Ery-R (ermB) [4]
CCC1OC(=O)C(C)C(=O)C(C)C(OC2OC(C)CC(N(C)C)C2O)C(C)(OC)CC(C)C(=O)C(C)C2N(CCCn3cc(Cn4nnc5ccccc54)nn3)C(=O)OC12C (stereo not drawn) [Entry 18a]	0.5 µg/mL (≈ 0.586 µM)	> 64	2 µg/mL (≈ 2.34 µM)	1 µg/mL (≈ 1.17 µM)	–	–
CC[C@H]1OC(=O)[C@H](C)[C@@H](OC2CC(C)(OC)C(O)C(C)O2)[C@H](C)[C@@H](OC2OC(C)CC(N(C)C)C2O)[C@@](C)(OC)C[C@@H](C)C(=O)[C@H](C)[C@H]2N(CCCCn3cc(-c4ccccn4)nn3)C(=O)O[C@]12C (stereo partly drawn) [Entry 20a]	0.125 µg/mL (≈ 0.128 µM)	–	–	–	8 (≈ 8.22 µM)	2 µg/mL (≈ 2.06 µM)
CCC1OC(=O)C(C)C(=O)C(C)C(OC2OC(C)CC(N(C)C)C2O)C(C)(OC)CC(C)C(=O)C(C)C2N(CCCCCn3cc(-c4cccnc4)nn3)C(=O)OC12C (stereo not drawn) [Entry 15c]	0.25 µg/mL (≈ 0.302 µM)	16 (≈ 19.3 µM)	0.25 µg/mL (≈ 0.302 µM)	–	–	4 µg/mL (≈ 4.84 µM)
CCC1OC(=O)C(C)C(=O)C(C)C(OC2OC(C)CC(N(C)C)C2O)C(C)(OC)CC(C)C(=O)C(C)C2N(CCCCn3cc(-c4ccc(C(F)(F)F)cc4)nn3)C(=O)OC12C (stereo not drawn) [Entry 13b]	–	8 (≈ 9.09 µM)	0.25 µg/mL (≈ 0.284 µM)	0.25 µg/mL (≈ 0.284 µM)	–	8 µg/mL (≈ 9.09 µM)
CCC1OC(=O)C(C)C(=O)C(C)C(OC2OC(C)CC(N(C)C)C2O)C(C)(OC)CC(C)C(=O)C(C)C2N(CCCn3cc(-c4ccc(Br)cc4)nn3)C(=O)OC12C (stereo not drawn) [Entry 12a]	–	64 (≈ 73 µM)	0.5 µg/mL (≈ 0.57 µM)	0.25 µg/mL (≈ 0.285 µM)	–	8 µg/mL (≈ 9.12 µM)
CCC1OC(=O)C(C)C(=O)C(C)C(OC2OC(C)CC(N(C)C)C2O)C(C)(OC)CC(C)C(=O)C(C)C2N(CCCn3cc(COc4c(Cl)cccc4Cl)nn3)C(=O)OC12C (stereo not drawn) [Entry 17a]	–	> 64	1 µg/mL (≈ 1.11 µM)	1 µg/mL (≈ 1.11 µM)	–	> 64 µg/mL
CC[C@H]1OC(=O)[C@@](C)(F)C(=O)[C@H](C)[C@@H](OC2OC(C)CC(N(C)C)C2O)[C@@](C)(OC)C[C@@H](C)C(=O)[C@H](C)[C@H]2N(CCCCn3cc(-c4ccccn4)nn3)C(=O)O[C@]12C (stereo partly drawn) [Entry 23a]	≦0.125 μg/mL	2 (≈ 2.41 µM)	≦0.125 μg/mL	≦0.125 μg/mL	–	≦0.125 μg/mL
CCC1OC(=O)C(C)C(=O)C(C)C(OC2OC(C)CC(N(C)C)C2O)C(C)(OC)CC(C)C(=O)C(C)C2N(CCCn3cc(-c4cccnc4)nn3)C(=O)OC12C (stereo not drawn) [Entry 15a]	1 µg/mL (≈ 1.25 µM)	> 64	2 µg/mL (≈ 2.5 µM)	2 µg/mL (≈ 2.5 µM)	–	> 64 µg/mL
CC[C@H]1OC(=O)[C@H](C)[C@@H](OC2CC(C)(OC)C(O)C(C)O2)[C@H](C)[C@@H](OC2OC(C)CC(N(C)C)C2O)[C@@](C)(OC)C[C@@H](C)C(=O)[C@H](C)[C@H]2N(CCCCn3cc(Cn4nnc5ccccc54)nn3)C(=O)O[C@]12C (stereo partly drawn) [Entry 20e]	0.5 µg/mL (≈ 0.487 µM)	–	–	–	8 (≈ 7.79 µM)	2 µg/mL (≈ 1.95 µM)
